# Values joined by “and” are separate entries in the source; they are usually repeats but may differ in a detail not shown here. Equal entries are not always repeated. For some assays here: What follows is the remainder of the data, with few or none of the hits. Records with an inconclusive call do not appear. A structure can be active in one record and inactive in another. The entries are a selection whose mix differs from that of the whole data set. Active and inactive are the calls of the source. The calls were made as follows, unless noted: active = hit-call score of the fitted dose curve at least 0.9, where 1 is the maximum; inactive = score below 0.9.
# Tests used:
# [1] = read-out: Vascular cell adhesion molecule 1 (VCAM1), VCAM1 (gene 7412); test: BSK_4H_VCAM1: BioMAP Diversity Plus: 4H Assay for Vascular cell adhesion molecule 1 (VCAM1) Biomarker Activity (AID 2283033); conditions: actives raise or lower the signal; primary human endothelial cells (HUVEC)
# Outline: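 Endpoint derived from bidirectional fitting against DMSO controls of VCAM-1 ELISA signal in umbilical vein endothelial cells sampled at 24 h following treatment.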
# [2] = read-out: serum amyloid A (SAA), SAA1 (gene 6288); test: BSK_CASM3C_SAA: BioMAP Diversity Plus: CASM3C Assay for serum amyloid A (SAA) Biomarker Activity (AID 2283049); conditions: actives raise or lower the signal; primary human coronary artery smooth muscle cells;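 also: SAA protein level quantified by ELISA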
# [3] = read-out: E-selectin (Homo sapiens) (UniProt P16581); test: BSK_LPS_Eselectin: BioMAP Diversity Plus: LPS Assay for Eselectin Biomarker Activity (AID 2283077); conditions: actives raise or lower the signal; primary human HUVEC with PBMC
# Chain of UniProt P16581 (P16581 whole entry, looked up): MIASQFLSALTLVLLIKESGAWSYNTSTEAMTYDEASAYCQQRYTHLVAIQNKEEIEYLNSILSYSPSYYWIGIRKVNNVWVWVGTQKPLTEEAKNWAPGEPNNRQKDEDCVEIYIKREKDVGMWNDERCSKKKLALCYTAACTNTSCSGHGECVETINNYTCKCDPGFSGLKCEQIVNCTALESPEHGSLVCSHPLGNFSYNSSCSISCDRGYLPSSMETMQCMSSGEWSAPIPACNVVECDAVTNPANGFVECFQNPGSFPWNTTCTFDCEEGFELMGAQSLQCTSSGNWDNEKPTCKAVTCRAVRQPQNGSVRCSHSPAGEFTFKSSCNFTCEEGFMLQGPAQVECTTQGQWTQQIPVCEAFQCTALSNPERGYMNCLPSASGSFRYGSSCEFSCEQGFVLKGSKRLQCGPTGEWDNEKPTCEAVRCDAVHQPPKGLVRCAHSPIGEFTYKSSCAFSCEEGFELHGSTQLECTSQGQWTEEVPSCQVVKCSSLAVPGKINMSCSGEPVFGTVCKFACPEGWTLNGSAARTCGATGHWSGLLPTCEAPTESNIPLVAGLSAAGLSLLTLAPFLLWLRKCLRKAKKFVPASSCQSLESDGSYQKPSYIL
# Outline: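 Dose chemical onto LPS-driven HUVEC/PBMC co-culture; after 24 h, run ELISA for E-selectin; fit up- and down-going responses relative to DMSO control.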
# [4] = target: Peroxisome proliferator-activated receptor gamma (Homo sapiens) (UniProt P37231); test: OT_PPARg_PPARgSRC1_0480: Odyssey Thera (OT) 8-hour Protein-Complementation Assay for Peroxisome Proliferator-activated Receptor Gamma / SRC-1 Co-activator (AID 2283387; active = hit-call score of the fitted dose curve at least 0.9, where 1 is the maximum;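 also: nuclear to cytoplasmic split Venus YFP fluorescence ratio reporting PPARg SRC-1 interaction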)
# Chain of UniProt P37231 (P37231 whole entry, looked up, the tested form may be a part): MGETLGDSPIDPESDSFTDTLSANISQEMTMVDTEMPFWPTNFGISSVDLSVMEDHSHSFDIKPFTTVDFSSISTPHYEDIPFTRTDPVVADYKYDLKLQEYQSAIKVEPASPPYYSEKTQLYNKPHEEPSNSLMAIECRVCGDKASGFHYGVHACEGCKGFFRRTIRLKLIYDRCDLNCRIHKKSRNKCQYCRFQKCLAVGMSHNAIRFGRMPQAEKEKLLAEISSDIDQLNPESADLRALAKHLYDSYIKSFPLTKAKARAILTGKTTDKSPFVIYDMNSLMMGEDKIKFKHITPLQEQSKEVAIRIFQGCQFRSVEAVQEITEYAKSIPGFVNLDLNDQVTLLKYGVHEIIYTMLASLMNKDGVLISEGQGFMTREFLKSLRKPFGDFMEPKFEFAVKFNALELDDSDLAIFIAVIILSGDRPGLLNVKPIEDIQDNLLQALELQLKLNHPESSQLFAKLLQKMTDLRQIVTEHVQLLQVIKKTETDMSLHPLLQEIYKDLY
# Outline: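 Read-out: 488 nm N/C fluorescence ratio from complemented Venus YFP fragments, ≥350 cells per image, gain-of-signal fitted against DMSO baseline. Fusions of PPARg/SRC-1 with IFP1/IFP2 expressed transiently in HEK293T; compounds applied 8 h.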
# [5] = read-out: Cytochrome P450 4A22 (Homo sapiens) (UniProt Q5TCH4); test: LTEA_HepaRG_CYP4A22: Life Technologies and Expression Analysis (LTEA) Assay for Cytochrome P450 4A22 (CYP4A22) using HepaRG (AID 2283495); conditions: actives raise or lower the signal; mRNA level, 48 h
# Outline: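 Concentration-response (8 points, max 100 uM, 0.5% DMSO) in human HepaRG liver cells after 48 h exposure. CYP4A22 mRNA by TaqMan qRT-PCR with housekeeping-gene normalization.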
# [6] = read-out: Paternally Expressed 10 (PEG10), PEG10 (gene 23089); test: LTEA_HepaRG_PEG10: Life Technologies and Expression Analysis (LTEA) Assay for Paternally Expressed 10 (PEG10) using HepaRG (AID 2283520); conditions: actives raise or lower the signal; mRNA level, 48 h
# Outline: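 Chemicals tested on HepaRG cells for 48 h, highest concentration 100 uM. PEG10 expression assessed by qRT-PCR relative to DMSO control.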
# [7] = ACEA_ER_AUC_viability: ACEA Biosciences xCELLigence Real-Time Cell Analysis on Estrogen Receptor Agonism for Viability (AID 2283782; active = hit-call score of the fitted dose curve at least 0.9, where 1 is the maximum;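 also: continuous compound exposure with impedance area under curve over 80 h; hit means loss of impedance signal meaning reduced cell growth or viability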)
# Outline: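 T-47D human breast cells in phenol red-free RPMI1640 with 10% charcoal-stripped FBS were dosed with an 8-point 1:4 dilution series from 100 uM top final concentration, in duplicate. Impedance-based growth was followed for 80 h; AUC analysed versus DMSO.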
# [8] = system: zebrafish Peroxisome Proliferator-activated Receptor gamma (PPARg), gene 557037; test: ATG_zfPPARg_XSP2: Attagene TRANS-FACTORIAL Multi-Species (XSP2) HepG2 Assay for zebrafish Peroxisome Proliferator-activated Receptor gamma (PPARg) (AID 2283833; active = hit-call score of the fitted dose curve at least 0.9, where 1 is the maximum;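 also: reporter mRNA from a zebrafish PPARg GAL4 chimera measured by RT-PCR and capillary electrophoresis; actives increase reporter signal over DMSO so AC50 reflects activation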)
# Outline: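 HepG2, transient MRTU transfection, 24 h compound; zfPPARg-GAL4 reporter mRNA by RT-PCR + capillary electrophoresis; gain-of-signal vs DMSO.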
# [9] = TOX21_PR_BLA_Followup_Antagonist_viability: Viability Assessment in the Tox21 HEK293 Progesterone Receptor (PR) Antagonism Beta-lactamase Follow-Up Assay (AID 2283936; active = hit-call score of the fitted dose curve at least 0.9, where 1 is the maximum;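 also: hits lower the luminescence signal meaning cytotoxicity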)
# Outline: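 PR-UAS-bla HEK293T cells (3,000/well, 2% charcoal-stripped FBS) given compound plus R5020 agonist, 16 h at 37C. CellTiter-Glo added after bla read, 30 min at room temperature; luminescence loss indicates cytotoxicity.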
# [10] = read-out: Interleukin-8 (IL8), CXCL8 (gene 3576); test: BSK_CASM3C_IL8: BioMAP Diversity Plus: CASM3C Assay for Interleukin-8 (IL8) Biomarker Activity (AID 2283042); conditions: actives raise or lower the signal; primary human coronary artery smooth muscle cells;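 also: IL-8 protein level quantified by ELISA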
# [11] = read-out: Interleukin-8 (IL8), CXCL8 (gene 3576); test: BSK_LPS_IL8: BioMAP Diversity Plus: LPS Assay for Interleukin-8 (IL8) Biomarker Activity (AID 2283078); conditions: actives raise or lower the signal; primary human HUVEC with PBMC
# Outline: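 In this LPS system, chemical-treated human umbilical vein endothelium/PBMC co-cultures were harvested at 24 h for IL-8 ELISA.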
# [12] = read-out: urokinase plasminogen activator (uPA), PLAU (gene 5328); test: BSK_BE3C_uPA: BioMAP Diversity Plus: BE3C Assay for urokinase plasminogen activator (uPA) Biomarker Activity (AID 2283038); conditions: actives raise or lower the signal; primary human bronchial epithelial cells;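 also: uPA protein level quantified by ELISA in cell cultures; uPA read one day after compound addition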
# Outline: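 Using confluent primary human lung bronchial epithelial cultures, we dosed chemicals, waited 24 h, then ran a uPA ELISA, fitting bidirectionally against DMSO.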
# [13] = read-out: Human Leukocyte Antigen - DR isotype (HLADR), HLA-DRA (gene 3122); test: BSK_CASM3C_HLADR: BioMAP Diversity Plus: CASM3C Assay for Human Leukocyte Antigen - DR isotype (HLADR) Biomarker Activity (AID 2283043); conditions: actives raise or lower the signal; primary human coronary artery smooth muscle cells;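 also: cell-surface HLA-DR protein level quantified by ELISA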
# [14] = read-out: Cytochrome P450 3A4 (Homo sapiens) (UniProt P08684); test: LTEA_HepaRG_CYP3A4: Life Technologies and Expression Analysis (LTEA) Assay for CYP3A4 using HepaRG (AID 2283487); conditions: actives raise or lower the signal; mRNA level, 48 h
# Chain of UniProt P08684 (P08684 whole entry, looked up): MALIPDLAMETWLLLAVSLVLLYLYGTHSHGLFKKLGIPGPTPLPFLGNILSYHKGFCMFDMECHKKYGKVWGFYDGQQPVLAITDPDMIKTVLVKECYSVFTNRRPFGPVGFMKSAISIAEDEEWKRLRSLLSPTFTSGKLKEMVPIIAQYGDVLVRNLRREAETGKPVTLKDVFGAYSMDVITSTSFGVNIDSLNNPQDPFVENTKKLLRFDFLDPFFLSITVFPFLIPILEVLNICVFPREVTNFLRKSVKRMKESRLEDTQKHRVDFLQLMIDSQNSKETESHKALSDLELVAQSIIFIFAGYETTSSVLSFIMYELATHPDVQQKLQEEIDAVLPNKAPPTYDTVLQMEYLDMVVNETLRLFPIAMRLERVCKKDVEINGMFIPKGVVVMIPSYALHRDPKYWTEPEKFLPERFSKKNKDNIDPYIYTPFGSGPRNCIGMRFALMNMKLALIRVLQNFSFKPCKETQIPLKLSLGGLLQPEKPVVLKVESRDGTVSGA
# Outline: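 CYP3A4 transcript measured by TaqMan qRT-PCR and normalized to three housekeeping genes after 48 h chemical exposure of human HepaRG cells. Top concentration 100 uM, half-log steps, 0.5% DMSO vehicle; gain or loss fitted against DMSO baseline.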
# [15] = read-out: Pselectin, SELP (gene 6403); test: BSK_4H_Pselectin: BioMAP Diversity Plus: 4H Assay for Pselectin Biomarker Activity (AID 2283026); conditions: actives raise or lower the signal; primary human endothelial cells (HUVEC)
# Outline: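 Human vascular endothelium from umbilical vein; P-selectin measured by ELISA at 24 h post-dose, with cytotoxicity checked by sulforhodamine B total-protein staining in parallel cultures (0.1% SRB after 10% TCA fixation, read at 560 nm).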
# [16] = read-out: Interleukin-1 alpha (IL1a), IL1A (gene 3552); test: BSK_KF3CT_IL1a: BioMAP Diversity Plus: KF3CT Assay for Interleukin-1 alpha (IL1a) Biomarker Activity (AID 2283070); conditions: actives raise or lower the signal; primary human keratinocytes with fibroblasts
# Outline: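 Human keratinocyte plus foreskin fibroblast primary co-culture, sampled 24 h after chemical dosing. IL-1a measured by ELISA; responses fitted bidirectionally against DMSO baseline (negative control), so gain or loss of signal both count.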
# [17] = read-out: Interleukin-1 alpha (IL1a), IL1A (gene 3552); test: BSK_LPS_IL1a: BioMAP Diversity Plus: LPS Assay for Interleukin-1 alpha (IL1a) Biomarker Activity (AID 2283080); conditions: actives raise or lower the signal; primary human HUVEC with PBMC
# Outline: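 Primary human HUVEC and PBMC co-culture stimulated with LPS is dosed and harvested at 24 h. Both increases and decreases in ELISA-measured IL-1a are scored relative to DMSO.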
# [18] = target: human CYP19A1, CYP19A1 (gene 1588) (UniProt P11511); test: NVS_ADME_hCYP19A1: NovaScreen (NVS) CYP450-related Enzyme Activity (ADME) Assay for human CYP19A1 (AID 2283098; active = hit-call score of the fitted dose curve at least 0.9, where 1 is the maximum)
# Chain of UniProt P11511 (P11511 whole entry, looked up): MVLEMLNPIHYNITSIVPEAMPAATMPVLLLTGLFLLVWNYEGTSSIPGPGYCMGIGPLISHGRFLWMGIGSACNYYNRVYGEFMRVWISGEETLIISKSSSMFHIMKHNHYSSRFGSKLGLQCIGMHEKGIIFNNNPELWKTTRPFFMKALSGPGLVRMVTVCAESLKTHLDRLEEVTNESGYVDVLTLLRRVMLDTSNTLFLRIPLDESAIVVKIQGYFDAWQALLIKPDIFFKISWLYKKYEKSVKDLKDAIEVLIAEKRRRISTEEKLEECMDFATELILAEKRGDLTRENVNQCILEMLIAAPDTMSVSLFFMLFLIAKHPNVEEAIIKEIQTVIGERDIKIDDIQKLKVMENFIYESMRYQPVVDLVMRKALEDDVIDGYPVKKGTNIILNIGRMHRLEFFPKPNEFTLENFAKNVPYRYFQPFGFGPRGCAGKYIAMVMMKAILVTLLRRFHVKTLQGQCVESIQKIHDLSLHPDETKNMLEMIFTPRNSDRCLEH
# Outline: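 Cell-free enzyme assay with recombinant protein and a specific fluorogenic substrate, read by fluorescence intensity 0.5 h after dosing. Primary screen ran in duplicate at 10 uM; actives were retested in concentration series. Loss of signal versus acetonitrile baseline.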
# [19] = target: Sodium channel protein type 1 subunit alpha (Rattus norvegicus) (UniProt P04774); test: NVS_IC_rNaCh_site2: NovaScreen (NVS) Ion Channel Assay for rat Sodium Channel, Site 2 (NaCh) (AID 2283322; active = hit-call score of the fitted dose curve at least 0.9, where 1 is the maximum;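 also: hit means loss of radioligand binding signal relative to DMSO so AC50 marks displacement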)
# [20] = CEETOX_H295R_OHPROG: CeeTox H295R High-throughput Steroidogenesis Assay for OH-Progesterone (OHPROG) (AID 2283435); conditions: actives raise or lower the signal;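 also: human adrenal H295R cells primed 48 h with 10 µM forskolin; 17alpha-hydroxyprogesterone secreted into medium measured by HPLC-MS/MS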
# [21] = Tanguay_ZF_120hpf_SOMI_legacy: (Legacy) Oregon State University Tanguay Lab 120 Hour Post-fertilization zebrafish Assay for Somite Malformation (AID 2283647; active = hit-call score of the fitted dose curve at least 0.9, where 1 is the maximum)
# Outline: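 Somitogenesis defects are recorded as binary calls in whole larvae at 120 hpf after continuous static chemical exposure starting at 6 hpf in dechorionated 5D embryos. DMSO serves as negative control and baseline.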
# [22] = read-out: Matrix Metallopeptidase 1 (MMP1), MMP1 (gene 4312); test: BSK_BE3C_MMP1: BioMAP Diversity Plus: BE3C Assay for Matrix Metallopeptidase 1 (MMP1) Biomarker Activity (AID 2283024); conditions: actives raise or lower the signal; primary human bronchial epithelial cells
# Outline: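 Dose cells, wait 24 h, run MMP1 ELISA; cells are human bronchial epithelial primaries. Both increases and decreases relative to DMSO counted.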
# [23] = BSK_SAg_SRB: Viability Assessment in the BioMAP Diversity Plus: SAg Assay (AID 2283096); conditions: primary human HUVEC with PBMC;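 also: cells read one day after compound addition; hits may be either gain or loss of signal compared with DMSO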
# Outline: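 Endothelial/PBMC primary human co-culture; compound 24 h; fix 10% TCA, stain 0.1% SRB, A560; protein content as cytotoxicity proxy; bidirectional curve fit, DMSO = baseline.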
# [24] = target: Estrogen receptor (Homo sapiens) + Estrogen receptor beta (Homo sapiens) (UniProt P03372+Q92731); test: OT_ER_ERaERb_1440: Odyssey Thera (OT) 24-hour HEK293T Protein-Complementation Assay for Estrogen Receptor-alpha/-beta Homodimer (AID 2283356; active = hit-call score of the fitted dose curve at least 0.9, where 1 is the maximum;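 also: heteromer of ER alpha and ER beta binding domains; hits raise reporter fluorescence and both agonists and antagonists give an increase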)
# Chain of UniProt P03372 (P03372 whole entry, looked up, the tested form may be a part): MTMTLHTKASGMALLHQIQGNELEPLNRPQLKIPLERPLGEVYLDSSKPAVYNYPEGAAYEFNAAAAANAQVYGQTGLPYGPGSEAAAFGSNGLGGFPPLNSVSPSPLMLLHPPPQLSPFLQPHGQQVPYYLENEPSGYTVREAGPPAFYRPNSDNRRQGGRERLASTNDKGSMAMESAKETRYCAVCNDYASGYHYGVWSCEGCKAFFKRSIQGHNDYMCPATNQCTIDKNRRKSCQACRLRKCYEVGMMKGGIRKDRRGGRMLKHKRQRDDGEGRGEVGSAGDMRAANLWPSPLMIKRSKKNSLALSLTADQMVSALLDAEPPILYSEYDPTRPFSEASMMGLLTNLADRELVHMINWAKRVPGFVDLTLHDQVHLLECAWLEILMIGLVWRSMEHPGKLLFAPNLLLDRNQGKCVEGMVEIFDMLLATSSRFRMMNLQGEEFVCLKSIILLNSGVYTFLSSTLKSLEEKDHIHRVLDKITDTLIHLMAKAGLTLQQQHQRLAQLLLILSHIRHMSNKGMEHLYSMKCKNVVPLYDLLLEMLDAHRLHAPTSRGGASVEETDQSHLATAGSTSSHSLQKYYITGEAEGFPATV
# Chain of UniProt P03372 (Q92731 whole entry, looked up, the tested form may be a part): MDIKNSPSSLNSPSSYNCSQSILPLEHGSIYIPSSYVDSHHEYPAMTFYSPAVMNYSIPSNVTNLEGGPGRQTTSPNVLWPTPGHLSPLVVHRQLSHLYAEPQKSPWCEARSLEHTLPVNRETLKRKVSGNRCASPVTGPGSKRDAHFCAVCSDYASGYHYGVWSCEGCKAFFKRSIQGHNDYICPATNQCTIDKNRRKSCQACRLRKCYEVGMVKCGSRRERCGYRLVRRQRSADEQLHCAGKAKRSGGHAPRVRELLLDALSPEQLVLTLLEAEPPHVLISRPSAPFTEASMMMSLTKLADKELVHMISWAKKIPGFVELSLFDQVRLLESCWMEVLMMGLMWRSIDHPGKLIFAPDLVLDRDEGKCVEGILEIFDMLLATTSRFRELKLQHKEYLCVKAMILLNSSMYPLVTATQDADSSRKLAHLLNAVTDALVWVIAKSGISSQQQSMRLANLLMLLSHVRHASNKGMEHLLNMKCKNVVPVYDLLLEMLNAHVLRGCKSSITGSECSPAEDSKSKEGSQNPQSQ
# Outline: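 24 h exposure; HEK293T PCA cells with ERα/ERβ LBD fragments; signal rise in nuclear or whole-cell fluorescence over vehicle.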
# [25] = read-out: ABC Transporter (ABCB1), ABCB1 (gene 5243); test: CLD_ABCB1_48hr: CellzDirect (CLD) Gene Expression Assay for ABC Transporter (ABCB1) at 48 hours (AID 2283695; active = hit-call score of the fitted dose curve at least 0.9, where 1 is the maximum)
# Outline: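 Primary human hepatocytes from two donor preparations dosed daily on two consecutive days with 0.2% DMSO vehicle. Harvest at 48 h. ABCB1 mRNA quantified by qNPA with chemiluminescence and fitted for gain of signal versus DMSO.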
# Chain of Cytochrome P450 4A22 (Homo sapiens) (Q5TCH4 whole entry, looked up): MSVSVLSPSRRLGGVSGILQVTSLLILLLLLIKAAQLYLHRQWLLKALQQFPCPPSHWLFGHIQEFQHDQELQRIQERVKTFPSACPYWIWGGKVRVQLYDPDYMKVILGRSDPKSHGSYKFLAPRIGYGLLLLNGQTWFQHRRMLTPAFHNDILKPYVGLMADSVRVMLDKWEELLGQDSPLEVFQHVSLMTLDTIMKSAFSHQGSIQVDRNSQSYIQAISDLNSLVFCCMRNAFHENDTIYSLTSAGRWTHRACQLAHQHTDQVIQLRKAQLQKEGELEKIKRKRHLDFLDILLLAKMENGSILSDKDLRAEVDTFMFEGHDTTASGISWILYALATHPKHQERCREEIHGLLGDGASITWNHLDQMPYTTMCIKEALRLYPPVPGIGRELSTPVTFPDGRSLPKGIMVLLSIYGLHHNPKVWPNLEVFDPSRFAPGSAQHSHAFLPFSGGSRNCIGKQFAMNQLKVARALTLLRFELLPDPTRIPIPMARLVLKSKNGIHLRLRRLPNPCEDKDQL
compound,measurement,setting,value
Clc1ccc(C(c2ccccc2Cl)C(Cl)(Cl)Cl)cc1 (stereo unspecified),AC50,[1],active: 18.5 µM
same,AC50,[2],active: 22.7 µM
same,AC50,[3],active: 22.2 µM
same,outcome,[4],inactive
same,AC50,[5],active: 36.3 µM
same,outcome,[6],inactive
same,AC50,[7],active: 35.2 µM
same,outcome,[8],inactive
same,outcome,[9],inactive
CC(C)(C)C(=O)CCl,outcome,[10],inactive
same,outcome,[11],inactive
Cc1ccccc1N,outcome,[12],inactive
CCCN(CCC)c1c([N+](=O)[O-])cc(C(C)C)cc1[N+](=O)[O-],AC50,[13],active: 15.9 µM
same,AC50,[14],active: 8.45 µM
CC(C)(C)C(O)C(Oc1ccc(Cl)cc1)n1cncn1 (stereo unspecified),outcome,[15],inactive
same,outcome,[16],inactive
same,outcome,[17],inactive
same,outcome,[18],inactive
same,AC50,[19],active: 25 µM
same,AC50,[20],active: 27.3 µM and active: 25.7 µM
same,AC50,[21],active: 49.6 µM
CCCCNC(=O)OCC#CI,AC50,[22],active: 33.1 µM
same,AC50,[10],active: 36.7 µM
same,AC50,[23],active: 27.2 µM
same,AC50,[24],active: 11.9 µM
same,outcome,[25],inactive
